The record followed here is publication PMC4336329 (PLoS ONE, 2015).

The whole screen tested about 310,000 compounds, of which about 14,000 (4.5%) showed an effect of 50% or more. Effects have a minus sign here. This is one part of the list.
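Note: peak tail current of the secondary pulse compared with the same well before compound.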

The target of this experiment is human ether-à-go-go-related gene (hERG) potassium channel (human, UniProt Q12809). The experiment in a line: primary screen, population patch clamp on CHO cells stably expressing hERG.
Sequence of human ether-à-go-go-related gene (hERG) potassium channel (Q12809 whole entry, looked up): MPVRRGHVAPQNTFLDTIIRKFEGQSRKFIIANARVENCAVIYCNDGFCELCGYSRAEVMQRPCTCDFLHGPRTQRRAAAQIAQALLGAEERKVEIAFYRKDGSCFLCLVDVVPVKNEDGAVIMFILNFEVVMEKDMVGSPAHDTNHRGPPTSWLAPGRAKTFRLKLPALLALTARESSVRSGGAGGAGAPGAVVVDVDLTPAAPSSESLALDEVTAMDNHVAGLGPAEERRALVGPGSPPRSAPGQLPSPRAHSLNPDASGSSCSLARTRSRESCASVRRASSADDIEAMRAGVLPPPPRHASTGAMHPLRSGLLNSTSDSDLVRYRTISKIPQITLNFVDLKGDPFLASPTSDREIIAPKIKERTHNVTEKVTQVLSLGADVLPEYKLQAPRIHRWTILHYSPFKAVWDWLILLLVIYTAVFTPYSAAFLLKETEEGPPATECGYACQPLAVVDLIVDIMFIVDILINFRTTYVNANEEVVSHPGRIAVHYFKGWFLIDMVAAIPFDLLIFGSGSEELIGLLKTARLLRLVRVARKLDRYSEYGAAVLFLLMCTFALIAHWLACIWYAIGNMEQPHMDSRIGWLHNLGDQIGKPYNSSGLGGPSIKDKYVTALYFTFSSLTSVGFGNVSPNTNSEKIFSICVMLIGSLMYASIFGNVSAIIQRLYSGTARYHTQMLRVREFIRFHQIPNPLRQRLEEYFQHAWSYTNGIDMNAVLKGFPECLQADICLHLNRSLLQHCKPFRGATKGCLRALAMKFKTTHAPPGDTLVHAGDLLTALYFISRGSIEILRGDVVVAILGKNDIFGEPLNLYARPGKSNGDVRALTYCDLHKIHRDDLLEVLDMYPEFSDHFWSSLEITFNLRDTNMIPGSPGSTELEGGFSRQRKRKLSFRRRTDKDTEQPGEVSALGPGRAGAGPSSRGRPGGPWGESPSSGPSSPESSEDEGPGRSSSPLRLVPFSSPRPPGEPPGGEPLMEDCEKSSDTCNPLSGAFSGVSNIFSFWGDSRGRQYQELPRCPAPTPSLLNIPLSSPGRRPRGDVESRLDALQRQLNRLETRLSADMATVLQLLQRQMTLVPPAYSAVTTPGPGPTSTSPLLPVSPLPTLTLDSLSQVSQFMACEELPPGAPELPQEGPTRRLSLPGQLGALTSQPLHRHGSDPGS
Turning to `CCOCC(=O)Nc1c(C(=O)Nc2ccccc2OC)oc2ccccc12`, the “hERG current change (%, negative = inhibition) at 10uM” value worked out at 1%.
Turning to `CCC(C)[C@H](NC(=O)N1CC(=O)Nc2ccccc21)C(=O)Nc1ccccc1C` (stereo partly shown), the “hERG current change (%, negative = inhibition) at 10uM” value worked out at 8.8%.
Under `COc1cc(/C=N/Nc2nc(C)cc(=O)[nH]2)ccc1O` stands 14.9%; under `O=C(Nc1cccc([N+](=O)[O-])c1)N1CCCCCC1`, 15.7%.
Under `O=c1c2ccccc2nnn1CSc1nnc(Nc2ccccc2)s1` stands -5.09%; under `Cc1c(NC(=O)c2ccc(-c3ccccc3)cc2)cccc1C(=O)O`, 1.12%.
In the case of `O=C(COc1ccccc1Cl)N(Cc1cccs1)C1CCS(=O)(=O)C1` (stereo not shown), the “hERG current change (%, negative = inhibition) at 10uM” value was -10.1%.
Take `O=C(c1ccccc1)c1ccccc1N1C(=O)C=CC1=O`: the “hERG current change (%, negative = inhibition) at 10uM” value stood at 4.1%.
Under `CN(CCN1CCOCC1)C(=O)CC1C(=O)NCCN1Cc1ccccc1F` (stereo not shown) stands 12%.
Consider `O=C1c2cccnc2C(=O)N1Cc1ccc(S(=O)(=O)N2CCOc3ccccc32)cc1`, for which the “hERG current change (%, negative = inhibition) at 10uM” value was 14.5%.
As to `C/C(=N/NC(=O)c1cccnc1)C1=C(O)CC(C)(C)CC1=O`, the “hERG current change (%, negative = inhibition) at 10uM” value stood at 13.5%.
Next, `CC(OC(=O)Cc1ccc(F)cc1)C(=O)NCc1ccc2c(c1)OCO2` (stereo not shown): -27.7%; `CC(=O)c1ccc(NC(=S)NCCCn2ccnc2)cc1`: 10.2%.
Next, `Cc1cccc(C(=O)NCC(=O)NC(C)CCc2ccccc2)c1` (stereo not shown): -0.165%; `CC1C(=O)N2CCCc3cc(NC(=O)C4CCCCC4)cc1c32` (stereo not shown): 4.17%; `COc1ccc(-c2noc(CCCC(=O)NC3CCCCC3)n2)cc1`: -1.35%.
Under `O=C(c1cc(COc2ccccc2)on1)N1CCCC(CN2CCOCC2)C1` (stereo not shown) stands -0.796%; under `COc1ccc(-c2nnc(CSc3nnc(-c4ccncc4)n3C3CCCCC3)o2)cc1OC`, -28.7%.
For the molecule `O=C(c1cnn2c(C(F)F)cc(-c3ccccc3)nc12)N1CCN2CCCC2C1` (stereo not shown), the “hERG current change (%, negative = inhibition) at 10uM” value is recorded as -30.4%.
Under `Cc1ccccc1C1(CCN2CCCCC2)CCOC(C)(C)C1.Cl` (stereo not shown) stands -7.96%; under `COc1cc(/C=C/C(=O)OC2CC3CCC2(C)C3(C)C)ccc1O` (stereo not shown), 7.13%; under `COC(=O)CSc1nnc(-c2ccc(S(=O)(=O)N3CCCCC3)cc2)o1`, 7.69%.
Under `CCOc1ccccc1Nc1ccc(C(=O)O)cc1NC(C)=O` stands 27.2%; under `Cc1ccc(-c2n[nH]c3c2C(c2cccc(O)c2)N(c2ccc(C(=O)O)cc2)C3=O)cc1` (stereo not shown), 4.49%; under `Cc1cc2ncn(C3CC(=O)N(Cc4ccc(N5CCCC5=O)cc4)C3=O)c2cc1C` (stereo not shown), -32.5%.
Under `Cc1cc(C)nc(SCC(N)=O)n1` stands 10.3%; under `OC(CN1CCOCC1)Cn1cnc2ccccc21` (stereo not shown), 5.65%; under `COc1ccc(-c2csc3ncnc(N4CCN(c5ccccc5OC)CC4)c23)cc1`, 4.75%.
Consider `CCN1CCN(c2ccc(S(=O)(=O)N3CCCCC3)cc2NC(=O)Cc2ccc(Cl)c(Cl)c2)CC1`, for which the “hERG current change (%, negative = inhibition) at 10uM” value was -48.5%.
Under `CC(=O)Nc1cccc(-c2nc3ccccc3o2)c1` stands 26.7%.
Under `Clc1ccc(C2=NNC(=NCc3ccccc3)SC2)cc1` stands -11.7%; under `Cc1c(NC(=O)C2(c3ccc(Cl)cc3)CCCC2)c(=O)n(-c2ccccc2)n1C`, -20.4%.
Under `Cc1ccc(NC(=O)C(=O)NCc2ccncc2)cc1` stands 15.3%; under `Cc1[nH]c2ccc(F)cc2c1CCN(Cc1ccncc1)C(=S)Nc1ccccc1`, -34.8%; under `CC(C)Cc1csc(NC(=O)c2ccc(Cl)cc2)c1C(=O)O`, 54.9%.
`COC(=O)CSc1nc2ccc(NC(=O)CSc3nnnn3Cc3ccccc3)cc2s1`: the “hERG current change (%, negative = inhibition) at 10uM” value is given as 10.8%.
Next, `COc1ccc(NC(=O)N2CCN(c3cccc(C(F)(F)F)c3)CC2)cc1OC`: -1.73%; `Cn1c(N)c(C(=O)COC(=O)c2cccs2)c(=O)n(C)c1=O`: -1.73%; `O=C(CCCSc1ccc(Cl)cc1)Nc1cc(S(=O)(=O)N2CCOCC2)ccc1O`: 10.3%.
As for `O=C(NC1CCCC1)c1sc(=S)n2c1[nH]c(=O)c1ccccc12`, the “hERG current change (%, negative = inhibition) at 10uM” value stood at 10.6%.
With `COc1ccc(N2CCN(CCC3Oc4cc([N+](=O)[O-])ccc4NC3=O)CC2)cc1` (stereo not shown), the “hERG current change (%, negative = inhibition) at 10uM” value is recorded as -19.1%.
Next, `CC1(c2cccc(Br)c2)NC(=O)N(CC(=O)N2CCN(C(=O)c3ccco3)CC2)C1=O` (stereo not shown): -8.78%; `COCCCNC(=O)C12CCC(C)(C(=O)C1)C2(C)C` (stereo not shown): -10.9%.
